Target: T1, vimentin in lupus nephritis kidney tissue (Homo sapiens, UniProt P08670)
T1 construct: endogenous vimentin of human lupus nephritis biopsies; vimentin-rich zones marked with the anti-vimentin antibody V9; also called Vim^hi zones of inflamed lupus kidney; source: endogenous, paraffin embedded human lupus kidney biopsies
Assay: immunostaining of cells or tissue; paraffin embedded lupus nephritis kidney biopsies, FLAG-tagged human IgG1 mAbs detected with rat anti-FLAG and Alexa Fluor 488 anti-rat IgG, co-stained with V9 and Hoechst; confocal microscopy, per field of view
Conditions: one partner purified

T1 sequence (P08670 whole entry): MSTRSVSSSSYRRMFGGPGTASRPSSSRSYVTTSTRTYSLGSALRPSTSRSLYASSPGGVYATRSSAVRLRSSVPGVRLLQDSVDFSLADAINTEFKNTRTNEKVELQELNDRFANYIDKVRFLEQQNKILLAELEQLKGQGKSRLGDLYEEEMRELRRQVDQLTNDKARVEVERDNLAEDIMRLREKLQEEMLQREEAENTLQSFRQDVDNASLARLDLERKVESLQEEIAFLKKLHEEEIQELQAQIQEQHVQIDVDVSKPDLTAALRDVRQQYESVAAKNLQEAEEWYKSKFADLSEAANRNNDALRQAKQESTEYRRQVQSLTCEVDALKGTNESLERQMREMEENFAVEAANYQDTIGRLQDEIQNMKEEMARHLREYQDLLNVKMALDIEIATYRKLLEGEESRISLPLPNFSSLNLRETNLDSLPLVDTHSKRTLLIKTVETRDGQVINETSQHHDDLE

binding result: binds
B1: FLAG-tagged PB5rev (antibody, V domains shown)
VH: QVQLVESGGGVVQPGRSLRLSCAASGFTFSSYAMHWVRQAPGKGLEWVAVISYDGSNKYYADSVKGRFTISRDNSKNTLYLQMNSLRAEDTAVYYCARERRGNSDYFDYWGQGTLVTVSS
VL: EIVMTQSPATLSVSPGERATLSCRASQSVSSNLAWYQQKPGQAPRLLIYGASTRATGIPARFSGSGSGTEFTLTISSLQSEDFAVYYCQQYNNWPPMYTFGQGTKLEIK
notes: as the heavy chain of m10; as the light chain of m10; also called PB5rev (FLAG); source: heavy chain vector FJ475055 with FLAG co-expressed with the light chain plasmid, purified with protein A; not shown: FLAG, C-terminal, kept

— publication PMC7731665 (Frontiers in Immunology, 2020)
